Source: publication PMC11477141, “Chemokine Receptor N-Terminus Charge Dictates Reliance on Post-Translational Modifications for Effective Ligand Capture and Following Boosting by Defense Peptides” (International Journal of Molecular Sciences, 2024)
Results are given in words; binding and its absence hold for the method and conditions named. Some binding calls cover weakened binding; strength is not graded here. Where a sequence is shown, tags or fusion partners need not be part of it. Each block holds one binder with its values, some of them ahead of it.

Assays:
[1] = biological target: T1, FAM-labelled peptide corresponding to the naked (unmodified) CCR5 N-terminus (human); assay: fluorescence polarisation; FAM-labelled receptor N-terminal peptide as probe at 250 nM in FP buffer (1:3, PBS:MilliQ), black 384-well plate; basic peptide titrated in a two-fold series, 12.21 nM to 100 µM (told for C21TP^81-111); triplicates; Kd fitted in GraphPad Prism 9; both purified
T1 sequence (peptide, 5,6-carboxyfluorescein (5,6-FAM) on the N-terminus): ADYQVSSPIYDINYYTSEP

[2] = biological target: T2, FAM-labelled peptide corresponding to the naked (unmodified) CCR1 N-terminus (human); assay: as above
T2 sequence (peptide, 5,6-carboxyfluorescein (5,6-FAM) on the N-terminus): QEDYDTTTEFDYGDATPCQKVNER

binding [1]: no binding (tested: 100 µM)
B1: C21TP^81-111, basic C-terminal peptide of the chemokine CCL21 (last 31 aa, residues 81-111) (peptide, UniProt O00585 104-134, looked up)
peptide: RKDRGASKTGKKGKGSKGCKRTERSQTPKGP
notes: also called C-terminal peptide of CCL21; source: bought: Caslo (Lyngby, Denmark)

binding [2]: binds
binding [1]: no binding
Binder: GIGDPVTCLKSGAICHPVFCPRRYKQIGTCGLPGTKCCKKP (peptide, UniProt O15263 24-64) [human beta defensin 2]

binding [2]: binds
binding [1]: no binding
Binder: DSHEKRHHGYRRKFHEKHHSHREFPFYGDYGSNYLYDN (peptide, UniProt P15515 20-57) [histatin1]
